Screen size: about 310,000 compounds; about 14,000 (4.5%) showed an effect of 50% or more. The effect is printed as a negative number. This is one part of the list.
biological target: human ether-à-go-go-related gene (hERG) potassium channel (human, UniProt Q12809); assay: primary screen, population patch clamp on CHO cells stably expressing hERG
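Note: peak tail current of the secondary pulse compared with the same well before compound.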

Sequence of human ether-à-go-go-related gene (hERG) potassium channel (Q12809 whole entry, looked up): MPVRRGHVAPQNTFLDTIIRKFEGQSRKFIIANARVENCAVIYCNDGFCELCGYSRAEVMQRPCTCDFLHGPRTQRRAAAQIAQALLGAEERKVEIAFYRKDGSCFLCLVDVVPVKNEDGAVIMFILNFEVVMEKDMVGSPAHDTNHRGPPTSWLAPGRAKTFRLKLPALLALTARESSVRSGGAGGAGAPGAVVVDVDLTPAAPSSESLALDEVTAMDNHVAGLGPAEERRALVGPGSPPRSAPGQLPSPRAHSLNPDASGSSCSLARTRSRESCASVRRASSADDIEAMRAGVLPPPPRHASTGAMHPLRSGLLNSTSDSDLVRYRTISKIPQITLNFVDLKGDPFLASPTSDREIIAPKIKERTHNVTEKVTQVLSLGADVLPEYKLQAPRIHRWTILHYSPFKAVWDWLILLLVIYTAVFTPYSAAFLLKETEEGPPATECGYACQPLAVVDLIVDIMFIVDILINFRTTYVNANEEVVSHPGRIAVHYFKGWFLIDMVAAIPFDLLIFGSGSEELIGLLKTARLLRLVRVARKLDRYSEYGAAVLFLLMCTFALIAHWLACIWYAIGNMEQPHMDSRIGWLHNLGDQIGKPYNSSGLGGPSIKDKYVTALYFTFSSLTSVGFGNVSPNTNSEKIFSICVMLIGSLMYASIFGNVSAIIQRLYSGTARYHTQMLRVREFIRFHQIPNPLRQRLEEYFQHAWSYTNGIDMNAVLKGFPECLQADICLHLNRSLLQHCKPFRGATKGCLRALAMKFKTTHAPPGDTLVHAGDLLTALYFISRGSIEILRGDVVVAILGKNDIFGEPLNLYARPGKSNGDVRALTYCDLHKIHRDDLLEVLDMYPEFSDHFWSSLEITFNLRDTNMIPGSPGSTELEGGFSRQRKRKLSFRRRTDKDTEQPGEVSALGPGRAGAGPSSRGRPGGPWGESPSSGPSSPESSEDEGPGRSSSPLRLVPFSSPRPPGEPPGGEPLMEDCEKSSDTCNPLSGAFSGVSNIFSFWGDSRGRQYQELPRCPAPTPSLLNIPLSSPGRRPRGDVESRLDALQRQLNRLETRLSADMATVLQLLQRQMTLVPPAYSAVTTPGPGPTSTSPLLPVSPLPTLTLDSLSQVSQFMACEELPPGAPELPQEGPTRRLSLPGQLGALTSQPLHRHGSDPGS

| Compound | hERG current change (%, negative = inhibition) at 10uM [%] |
| --- | --- |
| O=C(CSc1nnnn1CCCO)Nc1ccc2c(c1)OCO2 | 16.3 |
| O=C(NC(=S)NCCc1ccccc1)c1cccc(Cl)c1 | 7.61 |
| COc1ccc(N2CCN(S(=O)(=O)CCNC(=O)COc3ccccc3OC)CC2)cc1 | -1.02 |
| NC(=O)C1CCN(CC(=O)Nc2ccccc2Sc2ccccc2)CC1 | -35.3 |
| CC(=O)c1cc(C#N)c(Oc2cc(C)cc(C)c2)nc1C | -4.94 |
| CC1CCc2sc(NC(=O)C3CC(Cl)=CCC3C(=O)O)c(C#N)c2C1 (centres unmarked) | 26.7 |
| Cc1ccc(-n2c(SCC(=O)N3CCOCC3)nnc2-c2cccnc2)cc1 | 3.74 |
| O=C1CC(N2CCN(c3ccccc3Cl)CC2)C(=O)N1c1cccc(F)c1 (centres unmarked) | 9.79 |
| Cc1ccc(COC(=O)CN2C(=O)NC3(CCCC3)C2=O)cc1 | 2.81 |
| O=C(c1ccccc1F)N1CCN(S(=O)(=O)c2ccc3c(c2)OCCO3)CC1 | -25.3 |
| Cc1nn(CC(=O)O)c(C)c1C | 4.97 |
| COCC(C)NC(=O)c1cccc(Cl)c1 (centres unmarked) | 16.4 |
| Cc1cc(C)n(NC(=S)NC2CCCCC2)c(=O)c1C#N | 4.28 |
| COc1cc(NC(=O)c2ccccc2)c(OC)cc1Cl | -8.77 |
| CC(NC(=O)CN1C(=O)NC2(CCCCCC2)C1=O)c1ccccc1 (centres unmarked) | 2.93 |
| O=C(Nc1ccccc1C(=O)Nc1ccc(Cl)cc1)c1cccnc1 | 6.53 |
| CCOc1ccc(N(CC(=O)Nc2ccc(Br)cc2)S(C)(=O)=O)cc1 | 1.75 |
| Nn1c(SCC(=O)NC2CCCCC2)nnc1-c1ccccc1F | -3.17 |
| Cc1cc(C)n(-c2nc(C)nc(NCc3ccccc3)n2)n1 | -86.9 |
| O=C(CCc1nnc2ccc(N3CCC4(CC3)OCCO4)nn12)N1CCCCC1 | 16.7 |
| O=C(CSc1ccc(-c2cccnc2)nn1)N1CCCC1 | 9.32 |
| S=C(NCCN1CCOCC1)N/N=C/c1ccccc1 | 1.23 |
| Cc1cc(=O)oc2cc(OCC3CC(c4ccccc4)=NO3)ccc12 (centres unmarked) | -9.51 |

| Compound | hERG current change (%, negative = inhibition) at 10uM [%] |
| --- | --- |
| COCCNS(=O)(=O)c1ccc(C)c(C)c1C | 5.71 |
| CCOC(=O)N1CCC(Nc2ccc(N3C(=O)C4CCCCC4C3=O)cc2[N+](=O)[O-])CC1 (centres unmarked) | -16.1 |
| O=[N+]([O-])c1ccc2[nH]nc(-c3ccccc3)c2c1 | 9.26 |
| Cc1nc2c(S(=O)(=O)c3ccccc3)cnn2c(C)c1C | 13.4 |
| CCC(C(=O)OCC(=O)Nc1cc(C)ccc1OC)c1ccccc1 (centres unmarked) | 5.62 |
| CC(=O)c1ccc2c(c1)OCCOCCOc1ccc(C(C)=O)cc1OCCOCCO2 | -76.6 |
| CC(=O)c1c(C(C)=O)c(C)n(Cc2ccccc2)c1C | -5.73 |
| Cc1ccc(C(=O)NNC(=O)CSc2nc(N)cc(N)n2)cc1 | 12.9 |
| COc1ccc(NC(=O)c2ccc3c(=O)n(-c4ccc(OC)cc4OC)c(=S)[nH]c3c2)cc1 | 18.7 |
| CCOc1ccc(C(=O)Cc2ccc3oc(C(=O)O)cc3c2)c(O)c1 | -2.66 |
| O=C(c1ccco1)N1CCN(C2c3ccccc3-c3ccccc32)CC1 | 2.49 |
| CC(=O)c1ccc(N2CCN(S(=O)(=O)c3c(C(=O)N4CCCC4)c(C)n(C)c3C)CC2)cc1 | 15.6 |
| COCCCNC(=O)CCc1nnc2ccc(N3CCC(C)CC3)nn12 | 10.9 |
| CC(C)c1ccc(NC(=O)c2cc(S(=O)(=O)N3CCCC3)c[nH]2)cc1 | -3.45 |
| Cc1ccccc1NC(=O)CNC(=O)c1ccc(C(F)(F)F)cc1 | -9.16 |
| O=C(O)c1cccc(-n2cnnn2)c1 | 8.14 |
| Clc1cnc(N/N=C/c2ccco2)c(Cl)c1 | -15.3 |
| CCN(CC)Cc1cc(C(=O)O)c(C)o1 | 19.4 |
| N#Cc1cccc(C#N)c1Oc1ccc(S(=O)(=O)Nc2ccc(Cl)cc2)cc1 | 10.4 |
| CCN1C(=O)/C(=C\c2ccc(-c3cccc(C(=O)OC)c3)o2)SC1=Nc1ccc(C(=O)O)cc1 | 15.6 |
| Cc1nnc(SCC(=O)NC(=O)NCc2ccco2)s1 | 15.9 |
| CC(C)n1nc(C(=O)NCCc2ccc(S(N)(=O)=O)cc2)c2ccccc2c1=O | 4.68 |
| CC(=O)NC(CC(=O)NNC(=O)c1cccs1)c1ccccc1 (centres unmarked) | 14.7 |

| Compound | hERG current change (%, negative = inhibition) at 10uM [%] |
| --- | --- |
| COc1ccc(C)cc1NC(=O)C1CCCN1S(=O)(=O)c1ccc2c(c1)CCC(=O)N2 (centres unmarked) | -50.8 |
| O=C(Nc1cccc(C(=O)O)c1)/C(=C\c1ccccc1)NC(=O)c1ccccc1Cl | 2.7 |
| COc1ccc(Cc2nc3ccc(C(=O)N4CCCCC4CCO)cc3o2)cc1 (centres unmarked) | 4.93 |
| Cc1cc(C(=O)Cn2nc(C(=O)O)c3ccccc3c2=O)c(C)n1CCc1ccc(F)cc1 | 1.17 |
| Cc1cc(C)n(-c2c(F)c(F)c(CO)c(F)c2F)n1 | 18.7 |
| COc1ccc(OC)c(CN2CCN(S(=O)(=O)c3ccc(NC(C)=O)cc3)CC2)c1.O=C(O)C(=O)O | -3.01 |
| COC(=O)c1cc(OC)c(OC)cc1NC(=O)c1ccc(C)o1 | -6.1 |
| COCCNS(=O)(=O)c1ccc(OCC(=O)N2CCc3ccccc3C2)c(Cl)c1 | -43.5 |
| CC1N(C(=O)N2CCOCC2)CCN1S(=O)(=O)c1cccc(C(F)(F)F)c1 (centres unmarked) | 12.1 |
| CC1=C(C(=O)c2ccccc2)C(c2cn(-c3ccccc3)nc2-c2ccc(Cl)cc2)NC(=S)N1 (centres unmarked) | 1.35 |
| O=C(NCc1ccccc1OC(F)(F)F)C1CCC(=O)N(Cc2ccccn2)C1 (centres unmarked) | 3.64 |
| CC1(c2ccc3noc(-c4ccc(F)cc4)c3c2)OCCO1 | -31.1 |
| O=C(Nc1cc2c(cc1Cl)OCCCO2)c1ccccc1 | -0.672 |
| Cn1c(=O)oc2cc(S(=O)(=O)N3CCCC(C(=O)NCc4cccs4)C3)ccc21 (centres unmarked) | -12.6 |
| Cc1cccc2c(C(=O)N3CCCCC3)cc(-c3ccccc3)nc12 | -4.27 |
| CC(Oc1ccc(Br)cc1)C(=O)Nc1nnc(C2CC2)s1 (centres unmarked) | -29.4 |
| COc1cccc(S(=O)(=O)NCc2ccc(C(=O)Nc3cccc(Cl)c3)cc2)c1 | 9.07 |
| O=C(COC(=O)c1ccc(N2CCCC2=O)cc1)c1ccc(OC(F)F)cc1 | -12.2 |
| CC(=O)N1N=C(c2ccc(C)o2)CC1c1ccc(F)cc1 (centres unmarked) | 0.533 |
| O=C1c2cccc3cccc(c23)C(=O)N1Nc1ccccc1 | 46.2 |
| CCCCOC(=O)CCN1C(=O)/C(=C2\SC(=S)N(CCC(=O)OCCCC)C2=O)SC1=S | 9.11 |
| Cc1ccc(N2C(=O)NC(=O)/C(=C/c3ccc(-c4ccc(C(=O)O)c(Cl)c4)o3)C2=O)cc1 | 6.8 |
| Cc1cccc(C(=O)NC2CC3CCCC(C2)N3C(=O)NC2CCCCC2)c1 (centres unmarked) | 7.83 |

| Compound | hERG current change (%, negative = inhibition) at 10uM [%] |
| --- | --- |
| Cc1ccc(NC(=O)COC(=O)C2CC(=O)N(Cc3ccccc3)C2)cc1S(=O)(=O)N(C)C (centres unmarked) | 7.45 |
| COC(=O)c1c(C)oc(C)c(C(=O)OC)c1=O | 5.25 |
| Cc1cccc(NC(=O)CCSc2ccccn2)c1 | 0.39 |
| COc1ccccc1CNC(=O)COC(=O)CCC(=O)c1cccs1 | 1.23 |
| COc1cccc(C2NC(c3cccc(OC)c3O)C(C)C(=O)C2C)c1O (centres unmarked) | -8.17 |
| Cc1cccnc1NC(=O)CNC(=O)C12CC3CC(CC(Cl)(C3)C1)C2 | 13 |
| Nc1ccc(-c2cnc(-c3ccc(N)cc3)nc2)cc1 | 7.73 |
| Cc1ccc(S(=O)(=O)N2CCC(=O)N(CCOC(=O)Nc3cccc(Cl)c3)CC2)cc1 | -65.7 |
| Cc1ccccc1C(=O)NNc1ccc([N+](=O)[O-])cc1 | -17.3 |
| Cc1cc(C)n(C(=O)CSc2nc3ccccc3o2)n1 | 19.3 |
| CCOc1cc(/C=C2\SC(=NC)N(C)C2=O)cc(Cl)c1OC(C)=O | 9.76 |
| CCCS(=O)(=O)c1nc(S(=O)(=O)c2ccc(C)cc2)c(NCCCN2CCOCC2)s1 | -34.7 |
| O=C(Nc1cccc2ncccc12)c1ccc(F)cc1 | -6.11 |
| C=CCn1c(N)c(C(=O)NCc2cccnc2)sc1=S | -35.1 |
| CCCN(C(=O)CCNC(=O)c1ccc(Cl)cc1)c1c(N)n(Cc2ccccc2)c(=O)[nH]c1=O | -2.34 |
| CC1Cc2ccccc2N1C(=O)CCNS(=O)(=O)c1ccc2c(c1)CCC(=O)N2 (centres unmarked) | -32.5 |
| Cc1ccc(C(=O)Nc2nc3nc(-c4ccccc4)cc(=O)n3[nH]2)cc1 | 10.5 |
| CC(=O)c1ccc(OCC(O)CN(C)Cc2cccs2)cc1 (centres unmarked) | -13.9 |
| NC(CSS(=O)(=O)O)=NCCC12CC3CC(CC(O)(C3)C1)C2 | 13.1 |
| O=S(=O)(Cc1ccccc1)N1CCN(Cc2ccccc2)CC1 | -0.362 |

— article PMC4336329 (PLoS ONE, 2015)
